Like-named read-outs stand apart in the source and are kept apart here.
Molecular target: human CB2 receptor (hCB2) (Homo sapiens, UniProt P34972)
Experiment: cell-based
Type: cell-based
Conditions: for +/− HCB2: agonist or inverse agonist at hCB2
[1] = groups >100 nM-10 μM and >10 μM, cAMP, CHO-K1 hCB2, read-out: EC50 HCB2

Chain of human CB2 receptor (hCB2) (P34972 whole entry): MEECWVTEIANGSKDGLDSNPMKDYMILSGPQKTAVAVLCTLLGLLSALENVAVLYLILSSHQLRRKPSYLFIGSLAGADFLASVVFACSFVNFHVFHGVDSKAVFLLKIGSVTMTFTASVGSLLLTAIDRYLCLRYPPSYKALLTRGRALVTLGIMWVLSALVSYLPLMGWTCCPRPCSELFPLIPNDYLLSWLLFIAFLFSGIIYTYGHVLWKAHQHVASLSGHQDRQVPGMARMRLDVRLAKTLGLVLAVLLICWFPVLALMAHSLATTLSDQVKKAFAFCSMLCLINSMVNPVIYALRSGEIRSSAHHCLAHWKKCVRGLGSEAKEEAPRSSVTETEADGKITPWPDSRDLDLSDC

## CNC(=O)[C@@H](NC(=O)c1nc(CC(C)C)n2c1CN(C)CC2)C(C)(C)C [Compound 306, (S)-N-(3,3-dimethyl-1-(methylamino)-1-oxobutan-2-yl)-3-isobutyl-7-methyl-5,6,7,8-tetrahydroimidazo[1,5-a]pyrazine-1-carboxamide]
  +/− HCB2: +

## CNC(=O)[C@@H](NC(=O)c1nc(-c2ccccc2)n2c1CN(C1CC1)CC2)C(C)(C)C [Compound 197, (S)-7-cyclopropyl-N-(3,3-dimethyl-1-(methylamino)-1-oxobutan-2-yl)-3-phenyl-5,6,7,8-tetrahydroimidazo[1,5-a]pyrazine-1-carboxamide]
  +/− HCB2: +

## O=C(Nc1ccccc1)c1nc(-c2ccccc2)n2c1CN(CCO)CC2 [Compound 151, 7-(2-hydroxyethyl)-N,3-diphenyl-5,6,7,8-tetrahydroimidazo[1,5-a]pyrazine-1-carboxamide]
[1]
  EC50: > 10000 nM

## CN1CCn2c(-c3ccccc3)nc(C(=O)CC(C)(C)C)c2C1 [Compound 292, 3,3-dimethyl-1-(7-methyl-3-phenyl-5,6,7,8-tetrahydroimidazo[1,5-a]pyrazin-1-yl)butan-1-one]
[1]
  EC50: > 10000 nM

## CNC(=O)[C@@H](NC(=O)c1nc(/C=C/CN2CCCCC2)n2c1CN(C)CCC2)C(C)(C)C [Compound 510, (S,E)-N-(3,3-dimethyl-1-(methylamino)-1-oxobutan-2-yl)-8-methyl-3-(3-(piperidin-1-yl)prop-1-enyl)-6,7,8,9-tetrahydro-5H-imidazo[1,5-a][1,4]diazepine-1-carboxamide]
  +/− HCB2: +

## CN1CCn2c(-c3ccc(Cl)cc3F)nc(C(=O)N3CCC(n4c(=O)[nH]c5cc(Cl)ccc54)CC3)c2C1 [Compound 212, 5-chloro-1-(1-(3-(4-chloro-2-fluorophenyl)-7-methyl-5,6,7,8-tetrahydroimidazo[1,5-a]pyrazine-1-carbonyl)piperidin-4-yl)-1H-benzo[d]imidazol-2(3H)-one]
[1]
  EC50: > 10000 nM

## CN1CCn2c(-c3ccc(Cl)cc3F)nc(C(=O)NCc3ccc4[nH]c(=O)[nH]c4c3)c2C1 [Compound 228, 3-(4-chloro-2-fluorophenyl)-7-methyl-N-((2-oxo-2,3-dihydro-1H-benzo[d]imidazol-5-yl)methyl)-5,6,7,8-tetrahydroimidazo[1,5-a]pyrazine-1-carboxamide]
[1]
  EC50: > 10000 nM

## CNC(=O)[C@@H](NC(=O)c1nc(CC(C)C)n2c1CN(C)CCC2)C(C)(C)C [Compound 486, (S)-N-(3,3-dimethyl-1-(methylamino)-1-oxobutan-2-yl)-3-isobutyl-8-methyl-6,7,8,9-tetrahydro-5H-imidazo[1,5-a][1,4]diazepine-1-carboxamide]
  +/− HCB2: +

## CNC(=O)[C@@H](NC(=O)c1nc(-c2cncnc2)n2c1CNCC2)C(C)(C)C [Compound 19, (S)-N-(3,3-dimethyl-1-(methylamino)-1-oxobutan-2-yl)-3-(pyrimidin-5-yl)-5,6,7,8-tetrahydroimidazo[1,5-a]pyrazine-1-carboxamide]
  EC50: > 10000 nM

## CN1CCn2c(-c3ccc(Cl)cc3F)nc(C(=O)N3CCN(c4ncccn4)CC3)c2C1 [Compound 211, (3-(4-chloro-2-fluorophenyl)-7-methyl-5,6,7,8-tetrahydroimidazo[1,5-a]pyrazin-1-yl)(4-(pyrimidin-2-yl)piperazin-1-yl)methanone]
[1]
  EC50: > 10000 nM

## CNC(=O)[C@@H](NC(=O)c1nc(-c2ccc(F)cc2Cl)n2c1CN(C)CCC2)C(C)(C)C [Compound 337, (S)-3-(2-chloro-4-fluorophenyl)-N-(3,3-dimethyl-1-(methylamino)-1-oxobutan-2-yl)-8-methyl-6,7,8,9-tetrahydro-5H-imidazo[1,5-a][1,4]diazepine-1-carboxamide]
  +/− HCB2: +

## CC(C)(C)[C@@H](CO)NC(=O)c1nc(-c2ccccc2)n2c1CN(S(=O)(=O)c1ccccc1)CC2 [Compound 102, (S)-N-(1-hydroxy-3,3-dimethylbutan-2-yl)-3-phenyl-7-(phenylsulfonyl)-5,6,7,8-tetrahydroimidazo[1,5-a]pyrazine-1-carboxamide]
  EC50: > 10000 nM

## CNC(=O)[C@@H](NC(=O)c1nc(CCCCO)n2c1CN(C)CCC2)C(C)(C)C [Compound 508, (S)-N-(3,3-dimethyl-1-(methylamino)-1-oxobutan-2-yl)-3-(4-hydroxybutyl)-8-methyl-6,7,8,9-tetrahydro-5H-imidazo[1,5-a][1,4]diazepine-1-carboxamide]
  EC50: > 10000 nM

## CNC(=O)[C@@H](NC(=O)c1nc(-c2ccccc2)n2c1CN(CC1CC1)CCC2)C(C)(C)C [Compound 321, (S)-8-(cyclopropylmethyl)-N-(3,3-dimethyl-1-(methylamino)-1-oxobutan-2-yl)-3-phenyl-6,7,8,9-tetrahydro-5H-imidazo[1,5-a][1,4]diazepine-1-carboxamide]
  EC50: > 10000 nM

## CNC(=O)[C@@H](NC(=O)c1nc(C2=CCC(C)CC2)n2c1CN(C)CC2)C(C)(C)C (stereo partly drawn) [Compound 270, N-((S)-3,3-dimethyl-1-(methylamino)-1-oxobutan-2-yl)-7-methyl-3-(4-methylcyclohex-1-enyl)-5,6,7,8-tetrahydroimidazo[1,5-a]pyrazine-1-carboxamide]
  EC50: > 10000 nM

## CN1CCn2c(-c3ccccc3)nc(C(=O)N[C@H](C(N)=O)C(C)(C)C)c2C1 [Compound 285, (S)-N-(1-amino-3,3-dimethyl-1-oxobutan-2-yl)-7-methyl-3-phenyl-5,6,7,8-tetrahydroimidazo[1,5-a]pyrazine-1-carboxamide]
  +/− HCB2: +

## CNC(=O)[C@@H](NC(=O)c1nc(-c2ccc(Cl)cc2F)n2c1CN(C(=O)OC(C)(C)C)CCC2)C(C)(C)C [Compound 313]
  EC50: > 10000 nM

## CNC(=O)[C@@H](NC(=O)c1nc(C(O)c2ccccc2)n2c1CN(C)CC2)C(C)(C)C (stereo partly drawn) [Compound 295, N-((S)-3,3-dimethyl-1-(methylamino)-1-oxobutan-2-yl)-3-(hydroxy(phenyl)methyl)-7-methyl-5,6,7,8-tetrahydroimidazo[1,5-a]pyrazine-1-carboxamide]
  +/− HCB2: +

## CC(C)CN1CCn2c(-c3ccccc3)nc(C(=O)NC3CCCCC3)c2C1 [Compound 165, N-cyclohexyl-7-isobutyl-3-phenyl-5,6,7,8-tetrahydroimidazo[1,5-a]pyrazine-1-carboxamide]
  +/− HCB2: +

## O=C(NC1CCCCC1)c1nc(-c2ccccc2)n2c1CN(CC1CCOC1)CC2 (centres unmarked) [Compound 141, N-cyclohexyl-3-phenyl-7-((tetrahydrofuran-3-yl)methyl)-5,6,7,8-tetrahydroimidazo[1,5-a]pyrazine-1-carboxamide]
  +/− HCB2: +

## CC(C)CN1CCn2c(-c3ccccc3)nc(C(=O)Nc3ccccc3)c2C1 [Compound 150, 7-isobutyl-N,3-diphenyl-5,6,7,8-tetrahydroimidazo[1,5-a]pyrazine-1-carboxamide]
  EC50: > 10000 nM

## CNC(=O)[C@@H](NC(=O)c1nc(-c2ccccc2)n2c1CN(Cc1ccccc1)CC2)C(C)(C)C [Compound 61, (S)-7-benzyl-N-(3,3-dimethyl-1-(methylamino)-1-oxobutan-2-yl)-3-phenyl-5,6,7,8-tetrahydroimidazo[1,5-a]pyrazine-1-carboxamide]
  EC50: > 10000 nM

## O=C(NC1CCCCC1)c1nc(-c2ccccc2)n2c1CN(C(=O)C1CC1)CC2 [Compound 136, N-cyclohexyl-7-(cyclopropanecarbonyl)-3-phenyl-5,6,7,8-tetrahydroimidazo[1,5-a]pyrazine-1-carboxamide]
[1]
  EC50: > 10000 nM

— patent publication US7517874B2 (priority 2007, dated 2009)
